Laboratory results as given in PubChem BioAssay AID1345083 (National Center for Advancing Translational Sciences (NCATS), 2018).
In all, about 94,000 compounds went through this assay and about 6,200 (6.6%) were called active. Inconclusive results, whose numbers are uncertain, are shown with a selection of clear calls. The call rests on the fitted dose curve; in most records, active means well fitted inhibition curve with a large enough effect; inconclusive means small, poorly fitted or top-dose-only effect; inactive means flat fitted curve, though single readings scatter. Where the call is inconclusive, the potency comes from a doubtful curve fit.

Experiment: Cytotoxic Profiling in HEK 293 Cell Line of Diverse Libraries Using Quantitative High-Throughput Screening; further: nearly all actives have a fitted effect of over 60% in size
Details: HEK 293 viability, ATP luminescence (CellTiter-Glo), 48-72 h; activity change, negative = cytotoxicity: at 115 µM (top of the series) unless noted; series mostly up to 115 µM
Method in brief: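 CellTiter-Glo luminescence (cellular ATP) was read after 48 or 72 hr of compound exposure at 37 degree Celsius. Cells were HEK 293 plated at 250 cells/well.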
On the % scale 0 is the no-effect control and ±100 the full control effect; potency means the concentration at half of the fitted maximal effect; tags describe the fitted curve by direction and shape.

| Structure (SMILES) | activity change, negative = cytotoxicity | outcome | Potency |
| --- | --- | --- | --- |
| CCOC(=O)c1cccc(NC(=O)N2CC[C@@H](CC(=O)NCc3cccc4ccccc34)[C@@H](CC)C2)c1 | inactive: -17.3% | – | – |
| C[S+](=O)([O-])NC1=N[C@@]23CO[C@H](c4ccccc4)C[C@@H]2CC(=O)[C@H]3S1 | inactive: -26.1% | – | – |
| O=C(NC1CCCC1)C1CCN(Cc2ccccc2-c2ccccc2F)CC1 | inactive: -12.4% | – | – |
| CC1=C[C@@H](CNC(=O)CCC(=O)O)[C@H](C(C)C)C[C@H]1CC(=O)N1CCN(c2ccccn2)CC1 | – | inactive | – |
| COCCN1Cc2ccc(Nc3cccnc3)nc2C(C)(C(=O)NCc2ccncc2)C1 (stereo not given) | – | inactive [at 172 µM] | – |
| CCn1nccc1C(=O)N1CCC(Cc2noc(C3CC3)n2)C1 (stereo not given) | inactive: -29.8% | – | – |
| CCc1nn(-c2ccccc2)c(Oc2ccccc2OC)c1CCC(=O)NCCOC | – | – | inconclusive: 89.1 µM [inhibitor, single point] |
| COc1cccc(C(=O)N(C)Cc2ccc(F)cc2)c1 | inactive: -27.6% [at 172 µM] | – | – |
| C#CCNC(=O)c1nc2cccnc2n(CC(C)C)c1=O | inactive: -14.9% [at 172 µM] | – | – |
| CCOCc1nc(C2CCCN2C(=O)NCCC(=O)OCC)no1 (stereo not given) | – | inactive | – |
| Cc1noc(-c2ccccc2Cl)c1C(=O)NCCCCc1ccccc1 | – | – | inconclusive: 50.1 µM [inhibitor, partial curve, poor fit] |
| COc1cccc(C(=O)NC2CCN(C(=O)c3ccc(-c4cccc(OC)c4)cc3)CC2)c1 | – | – | inconclusive: 50.1 µM [inhibitor, partial curve, poor fit] |
| COc1ccc(F)cc1-c1ccc(CN2CCC(NC(=O)Nc3ccc(C)c(F)c3)C2)cc1 (stereo not given) | – | – | active: 25.1 µM |
| Cc1c(-c2ccccc2F)[nH]c2ccc(CNC(=O)CC3CCC(=O)N3)cc12 (stereo not given) | – | – | active: 35.5 µM |
| O=C(NCc1cccnc1)c1cn2cc(-c3ccc(C(F)(F)F)cc3)sc2n1 | – | – | active: 20 µM |
| COc1ccc(CCNC(=O)C2CCN(c3ccnc4ccnn34)CC2)cc1 | – | – | inconclusive: 44.7 µM [inhibitor, partial curve, poor fit] |
| Cc1nnc2ccc(NCc3ccccc3F)nn12 | – | – | inconclusive: 89.1 µM [inhibitor, single point] |
| COc1ccc(CCC(=O)N2CCC3(CC2)NC(=O)N(c2ccc(F)cc2)N3)cc1 | – | – | inconclusive: 25.1 µM [inhibitor, full curve] |
| CC(C)NC(=O)N1Cc2[nH]cnc2C[C@H]1c1nc(-c2ccc(Cl)cc2)no1 | – | – | inconclusive: 50.1 µM [inhibitor, full curve, poor fit] |
| CCc1ccc(NC(=O)Cn2ccn3nc4c(c3c2=O)CCCC4)cc1 | – | – | inconclusive: 44.7 µM [inhibitor, partial curve, poor fit] |
